Results as given in publication PMC4336329 (PLoS ONE, 2015).
Screen size: about 310,000 compounds; about 14,000 (4.5%) showed an effect of 50% or more. The effect is printed as a negative number. This is one part of the list.

These compounds were tested against human ether-à-go-go-related gene (hERG) potassium channel (human, UniProt Q12809) (assay: primary screen, population patch clamp on CHO cells stably expressing hERG).
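Note: peak tail current of the secondary pulse compared with the same well before compound.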

Chain of human ether-à-go-go-related gene (hERG) potassium channel (Q12809 whole entry, looked up): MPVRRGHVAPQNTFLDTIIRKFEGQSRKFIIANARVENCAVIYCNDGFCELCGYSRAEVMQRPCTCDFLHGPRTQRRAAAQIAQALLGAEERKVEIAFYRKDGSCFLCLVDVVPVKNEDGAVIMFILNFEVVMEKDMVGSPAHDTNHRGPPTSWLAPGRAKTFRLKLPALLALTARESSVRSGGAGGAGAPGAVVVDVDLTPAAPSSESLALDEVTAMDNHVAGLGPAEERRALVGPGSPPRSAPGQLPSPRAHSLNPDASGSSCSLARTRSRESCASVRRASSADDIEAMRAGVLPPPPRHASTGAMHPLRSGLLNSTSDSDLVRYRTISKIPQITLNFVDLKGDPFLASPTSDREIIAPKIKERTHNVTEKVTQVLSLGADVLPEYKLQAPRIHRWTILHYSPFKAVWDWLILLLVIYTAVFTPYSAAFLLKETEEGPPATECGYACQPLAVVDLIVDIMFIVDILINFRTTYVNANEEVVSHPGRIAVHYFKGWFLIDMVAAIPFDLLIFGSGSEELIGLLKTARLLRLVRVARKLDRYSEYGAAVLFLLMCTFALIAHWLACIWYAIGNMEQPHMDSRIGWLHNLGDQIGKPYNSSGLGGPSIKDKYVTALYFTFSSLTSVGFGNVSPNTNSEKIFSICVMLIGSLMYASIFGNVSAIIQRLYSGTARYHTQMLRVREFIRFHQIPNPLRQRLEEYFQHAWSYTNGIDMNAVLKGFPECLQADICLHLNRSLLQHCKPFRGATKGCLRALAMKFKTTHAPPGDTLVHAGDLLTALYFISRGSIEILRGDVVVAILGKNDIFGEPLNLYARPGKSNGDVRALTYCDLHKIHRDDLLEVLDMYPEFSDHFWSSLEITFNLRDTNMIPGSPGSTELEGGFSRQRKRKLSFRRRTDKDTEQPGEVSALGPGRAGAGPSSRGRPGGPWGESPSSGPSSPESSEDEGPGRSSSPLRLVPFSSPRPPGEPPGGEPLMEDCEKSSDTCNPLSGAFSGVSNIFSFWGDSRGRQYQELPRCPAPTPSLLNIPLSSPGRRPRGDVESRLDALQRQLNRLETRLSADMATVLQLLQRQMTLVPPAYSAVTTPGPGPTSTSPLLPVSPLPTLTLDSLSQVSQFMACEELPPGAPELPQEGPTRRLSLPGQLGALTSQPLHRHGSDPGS

Compound | hERG current change (%, negative = inhibition) at 10uM
Cc1onc(-c2c(F)cccc2Cl)c1C(=O)Nc1nnc(-c2ccccc2)s1 | 5.26%
CCC(C)(C)C1CCC(=NNC(=S)Nc2cccnc2)CC1 (stereo not shown) | 7.29%
COc1ccc(/C=C2/N=C(SCC(=O)Nc3cc(C)on3)N(c3ccccc3)C2=O)cc1 | 21.5%
CCOC(=O)/C(=N\Nc1cc(C(F)(F)F)ccc1Cl)N(CC)CC | -1.11%
COc1ccc(COCC(O)CN2CCN(S(=O)(=O)c3ccc(C(C)C)cc3)CC2)cc1 (stereo not shown) | -12.3%
O=C(Nc1cccc(C(F)(F)F)c1)c1ccc2nc(N3C(=O)CCC3=O)sc2c1 | -1.79%
Cc1cc(C(=O)OCC(=O)Nc2ccc(F)cc2[N+](=O)[O-])c2ccccc2n1 | 5.28%
COC(=O)c1cc(=O)n(-c2ccc(C(F)(F)F)cc2)[nH]1 | 13.9%
O=[N+]([O-])c1cc(S(=O)(=O)N2CCCC2)ccc1O | -0.443%
Cc1nnc(NCCc2ccccc2)n(N)c1=O | 7.99%
N/C(=N\OC(=O)CCCc1ccccc1)c1cccnc1 | -25.2%
Cc1c(NC(=O)CN2C(=O)c3ccccc3C2=O)c(=O)n(-c2ccccc2)n1C | 6.03%
COc1ccccc1OC(=O)Nc1ccc(Cl)cc1 | 12.1%
Fc1ccc(C(c2nnnn2CCc2ccccc2)N2CCCc3ccccc32)cc1 (stereo not shown) | 9.57%
COc1ccc(/C=N/NC(=O)C(=O)N2CCCCCC2)cc1[N+](=O)[O-] | -10.4%
CC(C)CC(=O)N1CCC(O)(CS(=O)(=O)Cc2ccccc2)CC1 | -1.93%
COc1ccc(CCNC(=O)C2CCCN2S(=O)(=O)c2cccc3nsnc23)cc1OC (stereo not shown) | 4.29%
O=C(N/C(=C\c1ccc([N+](=O)[O-])cc1)C(=O)N1CCOCC1)c1cccc(Br)c1 | -74.2%
CC(C)CN(C(=O)COC(=O)Cc1ccc(Cl)cc1)c1c(N)n(Cc2ccccc2)c(=O)[nH]c1=O | 5.02%
COc1ccc(CC(C(=O)Nc2cccc(F)c2)c2nn[nH]n2)c(OC)c1 (stereo not shown) | 6.23%
Cc1c(NC(=O)/C(C#N)=C/c2cccs2)c(=O)n(-c2ccccc2)n1C | 1.26%
Cc1nc2cc(S(=O)(=O)N3CCC(C(=O)O)CC3)ccc2n1C1CCCC1 | 15.7%

Compound | hERG current change (%, negative = inhibition) at 10uM
CCOC(=O)c1c(-c2ccc(OC)cc2)oc2ccc(O)cc12 | 13.1%
Cc1nn(Cc2ccc(F)cc2Cl)c(C)c1[N+](=O)[O-] | -1.01%
CCOc1ccc(C2CC(=O)NC(SCC(=O)OC)=C2C#N)cc1 (stereo not shown) | -5.84%
OCC(O)CNC(=S)NC1CCCCC1 (stereo not shown) | 16.3%
C=CCn1c(O)c(/C=C2\C=Nc3ccccc32)c(=O)[nH]c1=O | 15.4%
O=c1c2ccccc2nnn1CSc1nnnn1-c1ccc(O)cc1 | -13.1%
CC1SCC(=O)N(CC(=O)NC2CCCCC2)C1=O (stereo not shown) | 32%
CC1CCN(S(=O)(=O)c2ccc3c(ccn3CCC(=O)NC(C)C)c2)CC1 | -12.8%
O=C(NCc1cccnc1)c1ccc(Cl)cc1[N+](=O)[O-] | 5.82%
CCOC(=O)c1c(N)nn(C(=O)c2ccccc2)c1-c1ccccc1 | 14.3%
O=c1[nH]c2cc3c(cc2cc1C(c1nnnn1Cc1ccccc1)N1CCCc2ccccc21)OCO3 (stereo not shown) | 17%
CCCn1c(=O)c2c(nc3n2CCCN3CCc2ccccc2)n(C)c1=O | -65.4%
COCc1cc(=O)n2[nH]c(-c3ccsc3-n3c(C)ccc3C)cc2n1 | -14.2%
Cc1ccnc(NS(=O)(=O)c2ccc(NC(=O)c3ccc(Cl)cc3[N+](=O)[O-])cc2)n1 | 5.91%
O=C(O)c1cc(S(=O)(=O)N2CCN(C(=O)c3ccco3)CC2)c(Cl)cc1Cl | 15%
O=C(N/N=C/c1coc2ccccc2c1=O)c1cn(-c2ccccc2)nc1-c1ccc(F)cc1 | 16.1%
CCn1cnc2cc([N+](=O)[O-])ccc21 | 1.19%
CC(Oc1cc2oc(=O)c3c(c2cc1Cl)CCC3)C(=O)NCc1ccncc1 (stereo not shown) | -5.19%
CSc1c(CC(=O)Nc2ccccc2)n(C)c2ccccc12 | 22.2%
C=C(C)C(=O)Nc1cccc(C2=NOC3(C2)C[C@H](C(N)=O)N(C(=O)c2ccccc2)C3)c1 (stereo partly shown) | 5.7%
Cc1ccc(C(=O)NCC(=O)OCc2cccc(Br)c2)cc1 | -37.9%
